For the assay, the target named is GTPase KRas (Homo sapiens) (UniProt P01116). The assay can be described thus: Covalent labelling of cysteine mutants by fragments, read by mass spectrometry (AID 2202238). Also noted: protein at 5 µM with 500 µM competing thiol for 1.5 h. Particulars: KRAS G12D cysteine mutants, disulfide tethering, MALDI-TOF labeling, stronger effect = higher value, fragment at 500 µM.
Where [1] appears, read: measured here: G60C mutant labeling.
The mark [2] stands for this setting: measured here: G75C mutant labeling.
The mark [3] stands for this setting: measured here: H94C mutant labeling.
The mark [4] stands for this setting: measured here: I36C mutant labeling.
Setting [5] is: measured here: L120C mutant labeling.
The mark [6] stands for this setting: measured here: M67C mutant labeling.
[7] abbreviates: measured here: M72C mutant labeling.
Setting [8] is: measured here: N26C mutant labeling.
[9] abbreviates: measured here: N86C mutant labeling.
The mark [10] stands for this setting: measured here: P121C mutant labeling.
The mark [11] stands for this setting: measured here: S122C mutant labeling.
[12] abbreviates: measured here: S136C mutant labeling.

The list shows a part of the results. Shown are side measurements of this screen, not its main read-out; they come without a call.

Chain of UniProt P01116 (P01116 whole entry, looked up, the tested form may be a part): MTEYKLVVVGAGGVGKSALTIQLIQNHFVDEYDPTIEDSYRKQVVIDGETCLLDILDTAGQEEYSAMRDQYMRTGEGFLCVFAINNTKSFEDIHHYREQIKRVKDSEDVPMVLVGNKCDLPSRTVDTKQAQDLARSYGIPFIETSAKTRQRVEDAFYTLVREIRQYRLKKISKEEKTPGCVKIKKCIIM

The molecule `Cc1cc(C)nc(-n2[nH]c(C(=O)NCCS)cc2=O)n1` showed a percent labeling under setting [1] of 20.5%; a percent labeling under setting [2] of 7.4%; a percent labeling under setting [3] of 20.3%; a percent labeling under setting [4] of 10.3%; a percent labeling under setting [5] of 47.8%; a percent labeling under setting [6] of 17%. Further, the percent labeling runs as follows: under setting [7], 9.4%; under setting [8], 25.1%; under setting [9], 10.4%; under setting [10], 24.7%; under setting [11], 31.2%; under setting [12], 25.2%.

On to `COc1ccccc1Nc1ccc(C(=O)NCCS)cc1`, for which the percent labeling runs as follows: under setting [1], 18.3%; under setting [2], 8.5%; under setting [3], 13.3%; under setting [4], 10.3%; under setting [5], 14.6%; under setting [6], 14.5%. This molecule also returned a percent labeling under setting [7] of 34.4%; a percent labeling under setting [8] of 29.9%; a percent labeling under setting [9] of 10.9%; a percent labeling under setting [10] of 12.9%; a percent labeling under setting [11] of 9.5%; a percent labeling under setting [12] of 15.8%.

Molecule `Cn1nccc1C1(CNC(=O)CCS)CC1` registered a percent labeling under setting [2] of 11.8%; a percent labeling under setting [3] of 29.3%; a percent labeling under setting [4] of 39.2%; a percent labeling under setting [5] of 22.4%; a percent labeling under setting [6] of 31.9%; a percent labeling under setting [7] of 16.6%. For the same molecule, the percent labeling by setting is: under setting [9], 20.3%; under setting [10], 38.6%; under setting [11], 33.9%; under setting [12], 48.2%.

As for `CC1(C)CN(C2(CNC(=O)CCS)CCCCC2)CCO1`, the percent labeling runs as follows: under setting [2], 25%; under setting [3], 42.2%; under setting [4], 45.4%; under setting [5], 28.8%; under setting [6], 48.3%; under setting [7], 39%. Moreover, the percent labeling under setting [9] was 29.4%, the percent labeling under setting [10] was determined as 31.7%, the percent labeling under setting [11] came to 26.9% and the percent labeling under setting [12] is 62.6%.

With `COc1ccc(-c2noc(C(=O)NCCNC(=O)CCS)n2)cc1`, the percent labeling is 5.4% under setting [2]; 13.6% under setting [3]; 18.3% under setting [4]; 9% under setting [5]; 11.8% under setting [6]; 18.3% under setting [7]. Besides, the percent labeling under setting [9] worked out at 8.8%, the percent labeling under setting [10] turned out to be 16%, the percent labeling under setting [11] came out at 7.3% and the percent labeling under setting [12] is 20.5%.

Molecule `CC1(C)CCc2cc(NC(=O)CCS)ccc2O1` yielded a percent labeling under setting [2] of 15.6%; a percent labeling under setting [3] of 20.7%; a percent labeling under setting [4] of 24.2%; a percent labeling under setting [5] of 24.6%; a percent labeling under setting [6] of 13.7%; a percent labeling under setting [7] of 55.8%. Also, the percent labeling by setting is: under setting [9], 13.8%; under setting [10], 13.3%; under setting [11], 11.9%; under setting [12], 37.6%.

`CC1Cc2ccccc2N1Cc1occc1C(=O)NCCS` (stereo unspecified) returned a percent labeling under setting [1] of 8.2%; a percent labeling under setting [2] of 6.8%; a percent labeling under setting [3] of 7%; a percent labeling under setting [4] of 7%; a percent labeling under setting [5] of 6.9%; a percent labeling under setting [6] of 6.5%. Moreover, the percent labeling amounted to 0% under setting [7]; 7.6% under setting [8]; 5.3% under setting [9]; 6.8% under setting [10]; 0% under setting [11]; 7.1% under setting [12].

Regarding `Cc1cc(C(=O)NCCS)[nH]c1C`, the percent labeling under setting [1] came to 25.6%; the percent labeling under setting [2] came out at 17.8%; the percent labeling under setting [3] stood at 24.1%; the percent labeling under setting [4] came to 19.7%; the percent labeling under setting [5] is 24.5%; the percent labeling under setting [6] was 19.5%. Also, the percent labeling is 21.1% under setting [7]; 22.8% under setting [8]; 18.1% under setting [9]; 20.8% under setting [10]; 22.1% under setting [11]; 25.9% under setting [12].

The molecule `CC(Cc1cnc2ccccc2n1)C(=O)NCCS` (stereo unspecified) had a percent labeling under setting [1] of 25.9%; a percent labeling under setting [2] of 8.3%; a percent labeling under setting [3] of 27.7%; a percent labeling under setting [4] of 39.4%; a percent labeling under setting [5] of 29.4%; a percent labeling under setting [6] of 41.4%. The percent labeling reads like this: under setting [7], 17.5%; under setting [8], 32.8%; under setting [9], 21.8%; under setting [10], 31.4%; under setting [11], 30.8%; under setting [12], 43.5%.

On to `O=C(CCS)NC1CCN(c2c(F)cccc2F)C1` (stereo unspecified), for which the percent labeling by setting is: under setting [2], 11.4%; under setting [3], 30.8%; under setting [4], 26.1%; under setting [5], 23.2%; under setting [6], 29.4%; under setting [7], 34.1%. For the same molecule, the percent labeling under setting [9] was determined as 14%, the percent labeling under setting [10] amounted to 28.2%, the percent labeling under setting [11] came out at 33.9% and the percent labeling under setting [12] stood at 43.9%.

Regarding `O=C(NCCS)c1cc(COc2ccccc2F)on1`, the percent labeling is, setting by setting: under setting [1], 17.8%; under setting [2], 10.4%; under setting [3], 13.7%; under setting [4], 17.3%; under setting [5], 18.9%; under setting [6], 24.4%. The percent labeling is, setting by setting: under setting [7], 30.8%; under setting [8], 25.8%; under setting [9], 6.9%; under setting [10], 14.7%; under setting [11], 9.5%; under setting [12], 14.7%.

Regarding `COc1cc(OC)c2[nH]c(C(=O)NCCS)cc2c1`, the percent labeling runs as follows: under setting [1], 18.1%; under setting [2], 4.8%; under setting [3], 11.1%; under setting [4], 8.7%; under setting [5], 16.1%; under setting [6], 10.2%. Further, the percent labeling reads like this: under setting [7], 40.8%; under setting [8], 32.7%; under setting [9], 12.1%; under setting [10], 11%; under setting [11], 10.6%; under setting [12], 12.8%.

Consider `CCCn1c(=O)n(CCC(=O)NCCS)c2ccccc21`, for which the percent labeling worked out at 50.4% under setting [1]; 21.6% under setting [2]; 42.4% under setting [3]; 39.8% under setting [4]; 41.9% under setting [5]; 43.3% under setting [6]. Further, the percent labeling runs as follows: under setting [7], 36.7%; under setting [8], 37.9%; under setting [9], 21.8%; under setting [10], 41.6%; under setting [11], 33.3%; under setting [12], 65.7%.

On to `O=C(CCS)Nc1ccc(Oc2ccc(Cl)cc2)cn1`, for which the percent labeling under setting [2] stood at 15.8%; the percent labeling under setting [3] was 27.8%; the percent labeling under setting [4] is 22.7%; the percent labeling under setting [5] was found to be 26.6%; the percent labeling under setting [6] is 27.8%; the percent labeling under setting [7] stood at 42%. Moreover, the percent labeling by setting is: under setting [9], 30.6%; under setting [10], 21.7%; under setting [11], 11.8%; under setting [12], 34.3%.

Molecule `Cc1ccc(CC2CN(C(=O)CCS)C2)cc1` yielded a percent labeling under setting [2] of 18.3%; a percent labeling under setting [3] of 36.6%; a percent labeling under setting [4] of 32.5%; a percent labeling under setting [5] of 22.4%; a percent labeling under setting [6] of 23.8%; a percent labeling under setting [7] of 47.6%. The percent labeling under setting [9] worked out at 20.9%, the percent labeling under setting [10] worked out at 29.8%, the percent labeling under setting [11] is 29.8% and the percent labeling under setting [12] came to 48.4%.

The values above are taken from PubChem BioAssay AID2202238 (Ras Initiative Chemistry Research Team, Frederick National …, 2025).
